This is one part of the list. The energies were worked out here from pooled read counts, against the library average; single values are noisy.
Biological target: T1, Pho4 (S. cerevisiae) (UniProt P07270)
T1 sequence: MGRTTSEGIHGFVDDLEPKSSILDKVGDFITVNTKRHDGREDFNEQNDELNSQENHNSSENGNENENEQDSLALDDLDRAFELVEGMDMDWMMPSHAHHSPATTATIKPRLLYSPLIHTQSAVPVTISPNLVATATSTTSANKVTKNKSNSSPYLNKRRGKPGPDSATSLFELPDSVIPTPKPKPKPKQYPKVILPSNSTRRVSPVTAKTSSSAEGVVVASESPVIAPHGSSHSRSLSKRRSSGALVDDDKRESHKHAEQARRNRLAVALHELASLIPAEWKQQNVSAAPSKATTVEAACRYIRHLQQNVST
Test: relative binding free energy (BET-seq); higher = weaker binding
Details: reference: library average

Sequence	relative binding free energy [kcal/mol]
TTGGCCACGTGTGTGT	-0.02
TTAGGCACGTGGCTAT	-0.31
TTCTGCACGTGGAGTG	0.02
TGTTACACGTGGCAGA	0.18
AATGTCACGTGCGGTT	-0.03
GCGGGCACGTGCTTGT	-0.18
ACAGTCACGTGGGGAG	-0.03
TCAGGCACGTGATTGG	0.02
GCTTTCACGTGGAAGT	0.41
TTTTGCACGTGCATGA	-0.04
ATGAGCACGTGTAGGC	-0.06
CGTTACACGTGTGGGT	0.14
CCAGACACGTGGTGGG	0.05
ATGTTCACGTGATATC	0.28
TACGGCACGTGGTATT	-0.15
GCATGCACGTGGGGTA	-0.11
ATTTGCACGTGGTTCA	-0.11
GTGCTCACGTGGGGAA	-0.04
TTGGCCACGTGGTGTC	-0.05
GTTAGCACGTGCTGTG	-0.05
TTTAACACGTGTCTGG	0.02
TTGAGCACGTGGGCAT	-0.27
ATCTCCACGTGGTGTT	0.06

Sequence	relative binding free energy [kcal/mol]
GGCTTCACGTGTATTT	0.34
GATGGCACGTGGTGAG	-0.01
TGGCACACGTGGGGTA	-0.17
TGGTTCACGTGGATTG	0.33
TGGCGCACGTGATTGT	0.02
TGGGTCACGTGCTTAG	-0.02
GGGGACACGTGGTGTA	-0.1
GCGTTCACGTGTAGGA	0.3
GAAGTCACGTGGTGTG	0.04
TTATACACGTGGTCGT	-0.05
ACGTACACGTGTGGTG	-0.02
CGTAACACGTGGGTTA	-0.16
CTGGACACGTGAAGTG	0.41
ATAATCACGTGTTGCT	0.05
GAGTACACGTGAATTG	0.34
CTTTGCACGTGAGGTC	0.24
TGTAGCACGTGCTTGT	-0.11
GGCGTCACGTGGCGTT	0
TTGACCACGTGGAGTT	-0.04
ATTGACACGTGTCGGG	0.1
GTGATCACGTGGGGGG	0.01
AAAGGCACGTGGGGCA	-0.05
GGACGCACGTGGGCTG	-0.29

Sequence	relative binding free energy [kcal/mol]
TTGCTCACGTGGTAGG	0.32
TGCTGCACGTGAGGGT	0.28
GATGGCACGTGCGCGG	-0.13
TGGATCACGTGGAGGA	-0.01
GTGAACACGTGTGTTA	0.07
TATGTCACGTGTCAGA	0.31
TAATTCACGTGCTAGT	0.28
TGTCTCACGTGAATTT	0.4
AATAACACGTGTTAGT	-0.09
CGGAGCACGTGGTGTC	-0.14
ATGAGCACGTGGGAAA	-0.06
TAATGCACGTGATTGG	0.11
TTATGCACGTGCTGGG	0
ACTGTCACGTGAGGGT	0.23
TTTTCCACGTGGGGAA	-0.01
GGGGTCACGTGGTCAC	0.07
TAGGCCACGTGTGAGT	-0.21
AGACTCACGTGTTAGT	0.24
TAGGTCACGTGGAAAT	0.04
CGCTGCACGTGGGAGG	-0.11
TTTACCACGTGTATAT	0.04
TTTGACACGTGAGAAG	0.15
CGTTGCACGTGTATTG	0.02

Sequence	relative binding free energy [kcal/mol]
TAGTACACGTGGTTAG	-0.08
GTATACACGTGAAGGT	0.34
TAGTTCACGTGTTGCA	0.34
TTTAGCACGTGGGACA	-0.21
TCAGGCACGTGAGATT	0.27
TATGTCACGTGTAAAG	0.21
TACGGCACGTGCAGGG	-0.12
GCATGCACGTGGGGAG	-0.23
AAGTGCACGTGTAGGT	-0.1
GCGGTCACGTGGAGGC	0.01
CTGGACACGTGGTTGA	0.05
TGGGCCACGTGTGTGG	-0.05
CGTTGCACGTGTAGAT	0.17
ATTGGCACGTGTTCAG	-0.17
TATGACACGTGGTCAT	-0.13
GGGTACACGTGAGTGG	0.3
GTCGGCACGTGCTAGG	-0.03
GGGCTCACGTGCGGGC	0.25
GTTAACACGTGAGAGT	0.16
GGCTTCACGTGAAAGT	0.4
ATGGACACGTGTAGTG	-0.11
TGCAACACGTGATGGC	0.3
AGGGTCACGTGCAATG	0.09

Sequence	relative binding free energy [kcal/mol]
ATTGCCACGTGGTATT	0.01
ACTGGCACGTGGGTGT	-0.2
AGGAGCACGTGTTGGC	-0.08
TTGGACACGTGTGGGT	0.13
GGTAACACGTGGAGTT	0.05
ATTGACACGTGTTTGG	0.13
AGGGGCACGTGAGAAT	0.09
AGTTTCACGTGAAGAG	0.24
GGTCTCACGTGGTAAT	0.3
CATATCACGTGGAGTT	0.3
GTATTCACGTGTTGTT	0.25
ACGTGCACGTGTAAGT	-0.08
ATGGGCACGTGAGGGC	0.11
AGGGACACGTGGCTTG	-0.07
GAGATCACGTGTGGCT	0.29
TGTGACACGTGGCTTT	-0.11
GTTTGCACGTGGCGCT	-0.14
TGGATCACGTGTGGCG	0.13
GTTAGCACGTGTTGGC	0.03
GGAGGCACGTGCGGAG	-0.1
GTTATCACGTGTTTTG	0.3
GAAGTCACGTGGGAGT	0.08
TTTGACACGTGATTCT	0.14
